Results published in PubChem BioAssay AID894 (National Center for Advancing Translational Sciences (NCATS), 2007).
Where “and” joins values, the source holds several entries; their conditions need not be identical. Equal entries are not always repeated. Hit rate of the full screen: of about 150,000 compounds, about 6,500 (4.3%) were called active. The inconclusive results got no clear call from the source; some entries with a clear call stand among them for comparison. Calls come from the whole dose curve; as a rule, active = well fitted inhibition curve with a large enough effect (not every such curve was filed as active); inconclusive = small, poorly fitted or top-dose-only effect, or another doubt; inactive = no such curve, though single readings can be large or run the other way. Potencies beside an inconclusive call are fits to weak or partial responses and may not hold up.

target: 15-hydroxyprostaglandin dehydrogenase [NAD(+)] (Homo sapiens) (UniProt P15428); assay: qHTS Assay for Inhibitors of HPGD (15-Hydroxyprostaglandin Dehydrogenase); conditions: purified HPGD, NADH fluorescence kinetic, PGE2 substrate; activity change, negative = inhibition: stronger effect = lower value
How it was run: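 NADH formation kinetics: reaction with 30 uM PGE2 and 1 mM NAD+ (final), 20 nM enzyme, Tris-HCl pH 8 with Tween 20, after 15 min compound preincubation at room temperature. Fluorescence change, last versus first of five reads.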
% is set by controls: 0 for no effect and ±100 for the full control effect; potency is the fitted concentration of half-maximal effect; tags give direction and shape of the fitted curve.

Chain of UniProt P15428 (P15428 whole entry, looked up): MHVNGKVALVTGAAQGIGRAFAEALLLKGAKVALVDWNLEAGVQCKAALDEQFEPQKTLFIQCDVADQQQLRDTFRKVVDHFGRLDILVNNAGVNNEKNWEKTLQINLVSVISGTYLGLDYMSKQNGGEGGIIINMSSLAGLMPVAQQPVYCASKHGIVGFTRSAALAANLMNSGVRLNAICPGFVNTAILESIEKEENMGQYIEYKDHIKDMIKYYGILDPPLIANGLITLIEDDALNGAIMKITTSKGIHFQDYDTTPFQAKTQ

SMILES | Potency | activity change, negative = inhibition
CCOC(=O)c1sc(NC(=O)Cn2nnc3sc4c(c3c2=O)CCC(C(C)(C)C)C4)nc1C (configuration not stated) | inconclusive: 22.4 µM [inhibitor, single point] | 
COc1cc2ccc(=O)oc2cc1O | inconclusive: 12.6 µM [inhibitor, partial curve] and inconclusive: 3.55 µM [inhibitor, partial curve] and inconclusive: 22.4 µM [inhibitor, partial curve] | 
COc1cc(/C=C/C(=O)Nc2nnc(C(C)(C)C)s2)cc(OC)c1OC | inconclusive: 25.1 µM [inhibitor, partial curve] | 
O=C(Cc1ccccc1)c1nc2ccccc2s1 | active: 22.4 µM | 
COc1ccc(C(=O)NCC2CCCO2)cc1 (configuration not stated) | active: 12.6 µM | 
c1ccc(-n2nnc3c(N4CCOCC4)ncnc32)cc1 | active: 28.2 µM | 
CCOC(=O)c1cc2sccc2n1CC(=O)Nc1ccc(OC)c(OC)c1 | inconclusive: 35.5 µM [inhibitor, single point] | 
CCCCCC(=O)N/N=C/c1cc(Br)c(O)c(OC)c1 | inconclusive: 28.2 µM [inhibitor, partial curve] | 
O=C(CSc1nnc(-c2cccs2)o1)N1CCOCC1 |  | inactive: -20.6%
CCOC(=O)c1cc2c(=O)n3ccccc3nc2n(CCCOC)c1=NC(=O)C(C)(C)C | inconclusive: 15.8 µM [inhibitor, partial curve] | 
CCCCCCCCC(=O)N/N=C(\C)c1ccc(O)cc1O | inconclusive: 35.5 µM [inhibitor, single point] | 
CC1CN(c2ncnc3c2oc2ccccc23)CC(C)O1 (configuration not stated) |  | inactive: -4.59%
S=c1[nH]nc(-c2ccc(Br)o2)n1Cc1ccccc1 | active: 28.2 µM | 
CCN(CC)CCCn1c(=S)[nH]c2cc(OC)c(OC)cc2c1=O |  | inactive: -1.47%
COc1cccc2c(=O)n(CC(=O)Nc3ccccc3F)ccc12 | inconclusive: 39.8 µM [inhibitor, partial curve, poor fit] | 
O=C(NCC1CCCO1)c1c(O)c2cccc3c2n(c1=O)CC3 (configuration not stated) | inconclusive: 28.2 µM [inhibitor, partial curve] | 
O=C(c1cc(C(F)(F)F)cc(C(F)(F)F)c1)N1CCC2(CCCN(c3ncccn3)C2)CC1 |  | inactive: -20.6%
Cc1cc(=O)n2[nH]c(C)c(-c3ccc(Cl)cc3)c2n1 | inconclusive: 35.5 µM [inhibitor, single point] | 
CCn1nc(NC(=O)c2ccco2)c2cc3ccc(C)cc3nc21 | inconclusive: 39.8 µM [inhibitor, partial curve, poor fit] | 
COc1ccc(-c2nnc(SCC(=O)NC(=O)NCc3ccco3)o2)cc1 | active: 20 µM | 
COc1ccc(OC)c(S(=O)(=O)N2CCC(C(=O)NCc3ccccc3OC)CC2)c1 | inconclusive: 35.5 µM [inhibitor, single point] | 
Cc1ccccc1Cn1ccc(-c2ccc(Cl)cc2)c(C#N)c1=O | inconclusive: 35.5 µM [inhibitor, single point] | 
CCOc1cc(C2C(C(=O)c3ccco3)=C(O)C(=O)N2CCc2ccccc2)ccc1O (configuration not stated) |  | inactive: -3.36%
COc1ccc(-c2cc(C(=O)OCC(=O)N(C)C)c3ccccc3n2)cc1 | inconclusive: 28.2 µM [inhibitor, partial curve] | 

SMILES | Potency | activity change, negative = inhibition
O=C(/C=C/c1ccccc1)c1ccccn1 |  | inactive: -12.6%
Cc1nn(-c2ccccc2)c2c1C(c1ccccc1)C(C#N)=C(N)O2 (configuration not stated) | active: 31.6 µM | 
COC(=O)c1ccc(NC(=O)c2ccccc2)o1 | active: 31.6 µM | 
Cc1cccc(-c2n[nH]c(=S)n2Cc2ccccc2)c1 | inconclusive: 22.4 µM [inhibitor, partial curve] | 
CCOC(=O)C1CCN(C(=O)COc2ccc(Cl)cc2Cl)CC1 |  | inactive: -0.852%
CC(=O)Oc1ccc(OC(C)=O)c(SCCCCCN2CCOCC2)c1 | active: 17.8 µM | 
COc1cc(/C=N/Nc2nn3cnnc3c3ccccc23)ccc1O | inconclusive: 25.1 µM [inhibitor, partial curve] | 
CN1[C@H](CC(=O)c2ccccc2)CCC[C@H]1C[C@@H](O)c1ccccc1 |  | inactive: -4.61%
OC(CNCc1ccccc1)Cn1ccc2ccccc21 (configuration not stated) |  | inactive: -11.8%
Cc1ccc(/C=N/n2c(COc3ccccc3)n[nH]c2=S)s1 | active: 2.24 µM | 
O=C(Nc1nccs1)c1sc2cc(Cl)ccc2c1Cl | inconclusive: 28.2 µM [inhibitor, partial curve] | 
COC(=O)c1sccc1-c1ccc(C(=O)Nc2cccnc2)o1 | inconclusive: 14.1 µM [inhibitor, partial curve] | 
CC(=O)c1ccccc1OCCOCCOc1ccccc1C(C)=O |  | inactive: -14.6%
COc1ccc([N+](=O)[O-])cc1/C=N/NC(=O)CNC(=O)c1cccc(F)c1 | active: 25.1 µM | 
Cc1ccc2nc(-c3cccc(S(=O)(=O)N(C)C)c3)cn2c1 | inconclusive: 39.8 µM [inhibitor, single point] | 
CCn1c(CSc2nc3ccccc3s2)nc2ccccc21 | inconclusive: 28.2 µM [inhibitor, partial curve] | 
CC(C)n1c(SCC(N)=O)nc2c1c(=O)[nH]c(=O)n2C | inconclusive: 28.2 µM [inhibitor, partial curve] | 
Cc1ccccc1N(C(=O)Cn1nnc(-c2cccs2)n1)C(C(=O)NCCC(C)C)c1ccco1 (configuration not stated) |  | inactive: -7.97%
O=C(Cc1ccccc1)Nc1ccccc1Sc1ccccc1 | inconclusive: 35.5 µM [inhibitor, partial curve] | 
CCOC(=O)c1sc2nc(CC(=O)OC)nc(NCC(=O)OC)c2c1C | inconclusive: 31.6 µM [inhibitor, partial curve] | 
COc1cc(OC)c(C2N(c3ccccn3)C(=O)C3CCCN32)cc1OC (configuration not stated) |  | inactive: -14.6%
CCN(C(=O)COC(=O)c1n[nH]c2ccccc12)C1CCS(=O)(=O)C1 (configuration not stated) | inconclusive: 25.1 µM [inhibitor, partial curve] | 
CCN(CC)C(=O)CCNS(=O)(=O)c1ccc(C)cc1 |  | inactive: 3.66%
